Measurements taken from PubChem BioAssay AID686978 (National Center for Advancing Translational Sciences (NCATS), 2013).
About 64,000 (15%) of roughly 420,000 compounds were called active. This list was built around the results that the source calls inconclusive (neither active nor inactive); the mix of calls is not that of the screen. Calls come from the whole dose curve; as a rule, active = well fitted inhibition curve with a large enough effect; inconclusive = small, poorly fitted or top-dose-only effect; inactive = flat fitted curve, though single readings scatter. Potencies of inconclusive entries are left out as doubtful fits.

Experiment: qHTS for Inhibitors of human tyrosyl-DNA phosphodiesterase 1 (TDP1): qHTS in cells in absence of CPT; note: nearly all actives have a fitted effect of over 55% in size
Details: DT40 Tdp1-/- hTDP1 cells, no CPT, ATP luminescence, 48 h; activity change, negative = growth inhibition: at 46.2 µM (top of the series)
How it was run: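 Growth of hTDP1-complemented DT40 Tdp1-knockout cells is measured by ATP luminescence after at least 48 hr compound exposure at 37 °C, with DMSO substituting for the 20 nM CPT used in the parallel screen.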
% is set by controls: 0 for no effect and ±100 for the full control effect; potency is the fitted concentration of half-maximal effect; tags give direction and shape of the fitted curve.

**Q.** For `Cc1cc(C(F)F)n2nc(C(=O)Nc3ccc(C(C)C)cc3)nc2n1`, which “activity change, negative = growth inhibition” value is on record?
**A.** Its value is inactive: -29.8%.

**Q.** Which “activity change, negative = growth inhibition” value does the source give for `CCC1(C)Cc2ccccc2C(Nc2c(C)n(C)n(-c3ccccc3)c2=O)=N1` (stereo not given) here?
**A.** The value was inactive: -3.5%.

**Q.** With `CC1CC(C)CN(S(=O)(=O)c2ccc(NC(=O)C3CSC4(C)CCC(=O)N34)cc2)C1` (stereo not given) as the compound, how does the Potency read?
**A.** The Potency was inconclusive [inhibitor, single point].

**Q.** Which Potency does the source give for `CC1(C)CC(Nc2ccc(Nc3ccccc3)cc2)CC(C)(C)N1` here?
**A.** Its Potency is active: 4.61 µM.

**Q.** Which Potency does the source give for `COc1cc(-n2c(N)c(C(=O)NCc3ccco3)c3nc4ccccc4nc32)cc(OC)c1OC` here?
**A.** The Potency was inconclusive [inhibitor, single point].

**Q.** With `CCn1c(CNC(=O)c2ccco2)nnc1SCC(=O)Nc1cc(F)ccc1C` as the compound, how does the “activity change, negative = growth inhibition” value read?
**A.** The value was inactive: 3.26%.

**Q.** With `CCCCc1ccc(Nc2nc(N3CCOCC3)nc(N3CCOCC3)n2)cc1` as the compound, how does the Potency read?
**A.** The Potency was inconclusive [inhibitor, single point].

**Q.** With `Cc1ccccc1-n1c(CSC(=N)N)nc2ccccc2c1=O` as the compound, how does the Potency read?
**A.** The Potency was inconclusive [inhibitor, single point].

**Q.** Which Potency does the source give for `Cc1ccc(C)c(CN2CCCN(C(=O)Cn3ncc4c3-c3ccccc3OC4)C2)c1` here?
**A.** The Potency was active: 16.4 µM.

**Q.** For `CC(C)[C@@H](CO)NC(=O)c1ccc2c3n(nc2c1)-c1ccc(Cl)cc1CO3`, which Potency is on record?
**A.** The Potency was inconclusive [inhibitor, single point].

**Q.** Which Potency does the source give for `Cc1ccc(S(=O)(=O)N2CCc3cc(C(=O)Nc4ccc(C(F)(F)F)cc4)ccc32)cc1` here?
**A.** The Potency was inconclusive [inhibitor, single point].

**Q.** For `COc1ccc(CNS(=O)(=O)c2cc3c4c(c2)CCN4C(=O)CC3)cc1`, which Potency is on record?
**A.** Its Potency is inconclusive [inhibitor, partial curve].

**Q.** Which “activity change, negative = growth inhibition” value does the source give for `COc1ccc(N2CCN(C(=O)CN3C(=O)NC4(CCCCC4C)C3=O)CC2)cc1` (stereo not given) here?
**A.** The value was inactive: -28.3%.

**Q.** For `CSc1ccccc1NC(=O)N1CCC(CO)(CC2CCCCO2)CC1` (stereo not given), which Potency is on record?
**A.** The Potency was inconclusive [inhibitor, single point].

**Q.** With `O=C(NCc1cccnc1)c1cc(C2CCCN(C(=O)c3cccs3)C2)on1` (stereo not given) as the compound, how does the Potency read?
**A.** Its Potency is inconclusive [inhibitor, partial curve].

**Q.** Which Potency does the source give for `Fc1ccc(NC(=S)N2CCN(C/C=C/c3ccccc3)CC2)c(F)c1` here?
**A.** Its Potency is inconclusive [inhibitor, single point].

**Q.** For `CCc1nc2ccc(C(=O)NCCCN3CCCC3=O)cn2c1N(CC)C(C)=O`, which “activity change, negative = growth inhibition” value is on record?
**A.** The value was inactive: -8.06%.

**Q.** With `CN(c1ccccc1)S(=O)(=O)c1cccc(NC(=O)COc2cccc([N+](=O)[O-])c2)c1` as the compound, how does the Potency read?
**A.** Its Potency is active: 23.1 µM.

**Q.** Which “activity change, negative = growth inhibition” value does the source give for `Cc1ccc(COc2ccc(-c3cc(C(F)(F)F)n4nc(C)cc4n3)cc2)cc1` here?
**A.** Its value is inactive: -8.02%.

**Q.** Which “activity change, negative = growth inhibition” value does the source give for `CCn1c(=O)cc(SCC(=O)NCc2cccnc2)c2ccccc21` here?
**A.** The value was inactive: -23.4%.
